Measured values: US5888763, “Peptides specific for the first Crk-SH3 domain” (The Rockefeller University, dated 1999)

Target: gst-c-CrkSH3(1) (Example 2) (murine, UniProt Q64010)
Assay: filter binding of 35S-gst-CrkSH3(1) to blotted gst-fusion peptides

B1: gst-4-12 (9 amino acid gst-fusion peptide of CB-1) (other)
chain: not shown
binding result: binds
